The values that follow come from publication PMC4336329 (PLoS ONE, 2015).

Screen size: about 310,000 compounds; about 14,000 (4.5%) showed an effect of 50% or more. The effect is printed as a negative number. The list shows a part of the results.
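Note: peak tail current of the secondary pulse compared with the same well before compound.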

Sequence of human ether-à-go-go-related gene (hERG) potassium channel (Q12809 whole entry, looked up): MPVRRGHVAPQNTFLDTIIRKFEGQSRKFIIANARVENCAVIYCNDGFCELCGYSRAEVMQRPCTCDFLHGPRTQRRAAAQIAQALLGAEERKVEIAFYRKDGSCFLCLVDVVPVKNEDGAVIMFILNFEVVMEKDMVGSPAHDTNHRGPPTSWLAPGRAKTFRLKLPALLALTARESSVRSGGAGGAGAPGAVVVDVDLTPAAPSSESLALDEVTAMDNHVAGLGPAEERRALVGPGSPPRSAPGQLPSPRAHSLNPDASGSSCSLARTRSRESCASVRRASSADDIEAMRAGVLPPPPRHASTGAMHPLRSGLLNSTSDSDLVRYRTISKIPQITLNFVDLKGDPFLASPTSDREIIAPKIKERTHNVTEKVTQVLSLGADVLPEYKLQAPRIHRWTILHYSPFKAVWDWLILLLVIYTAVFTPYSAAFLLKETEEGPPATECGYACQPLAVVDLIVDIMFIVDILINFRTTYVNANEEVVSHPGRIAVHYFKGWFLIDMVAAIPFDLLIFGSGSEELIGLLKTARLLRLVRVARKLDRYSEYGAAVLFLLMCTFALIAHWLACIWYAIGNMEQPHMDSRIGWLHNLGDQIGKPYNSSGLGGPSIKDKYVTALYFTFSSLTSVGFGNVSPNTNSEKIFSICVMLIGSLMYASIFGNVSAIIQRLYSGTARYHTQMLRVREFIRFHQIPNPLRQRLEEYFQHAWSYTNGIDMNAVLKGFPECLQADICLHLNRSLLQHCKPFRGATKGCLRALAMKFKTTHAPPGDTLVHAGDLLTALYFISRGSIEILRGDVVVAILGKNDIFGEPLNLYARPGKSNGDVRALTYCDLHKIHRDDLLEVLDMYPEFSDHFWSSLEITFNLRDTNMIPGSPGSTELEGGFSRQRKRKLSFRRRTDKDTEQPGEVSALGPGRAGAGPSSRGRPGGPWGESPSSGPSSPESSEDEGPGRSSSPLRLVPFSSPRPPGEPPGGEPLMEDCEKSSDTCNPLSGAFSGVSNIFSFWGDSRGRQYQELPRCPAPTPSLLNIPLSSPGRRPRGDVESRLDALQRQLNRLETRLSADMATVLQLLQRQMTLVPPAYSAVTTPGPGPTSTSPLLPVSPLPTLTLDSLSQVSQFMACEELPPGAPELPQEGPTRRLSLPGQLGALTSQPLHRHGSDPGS

This assay has as its target human ether-à-go-go-related gene (hERG) potassium channel (human, UniProt Q12809). In words: primary screen, population patch clamp on CHO cells stably expressing hERG.
For `CCCCOc1ccc(C(=O)CCN2CCCCC2)cc1.Cl`, the “hERG current change (%, negative = inhibition) at 10uM” value is listed as -61.5%. For `CCOc1ccccc1C(C(=O)NC1CCCC1)N(Cc1ccco1)C(=O)CNC(=O)c1ccco1` (stereo not drawn), the “hERG current change (%, negative = inhibition) at 10uM” value is reported as -5.58%. Regarding `COc1ccc(CNCCCO)cc1OC`, the “hERG current change (%, negative = inhibition) at 10uM” value worked out at 4.57%. `N#CC1CN(C(c2ccccc2)c2ccccc2)C1`: the “hERG current change (%, negative = inhibition) at 10uM” value is on record as 12.8%. On to `COC(=O)C/C(N)=C(\C#N)C(=O)OC`, for which the “hERG current change (%, negative = inhibition) at 10uM” value is recorded as 8.1%. For the compound `CCCC1=Nc2cc(C(=O)NCCN3CCCC3)ccc2Sc2ccccc21`, the “hERG current change (%, negative = inhibition) at 10uM” value was -21.2%. As for `COc1ccc(NC(=O)CCNS(=O)(=O)c2cccc3nsnc23)c(OC)c1`, the “hERG current change (%, negative = inhibition) at 10uM” value was determined as 2.81%.

With `Cc1cc2cc3c(=O)[nH]c(=O)[nH]c3nc2cc1C`, the “hERG current change (%, negative = inhibition) at 10uM” value is 13.3%.

As to `CC(=O)c1c(N2CCN(C)CC2)nc(=S)n(-c2cc(C)ccc2C)c1C`, the “hERG current change (%, negative = inhibition) at 10uM” value worked out at 28.7%. On to `O=C(COC(=O)CCCc1nc2ccccc2s1)NC(=O)NCc1ccco1`, for which the “hERG current change (%, negative = inhibition) at 10uM” value is -26.1%. For `FC(F)(F)c1cc(Cl)c2nnc(C(F)(F)Cl)n2c1` the value was 5.24%; for `Fc1ccc(Nc2nc(-c3ccncc3)nc3ccccc23)cc1`, -13%; for `O=c1c(Cc2ccc(F)cc2)c(O)ccn1Cc1ccco1`, 11.7%.

Regarding `C#CCN(N(C)c1ncc(C(F)(F)F)cc1Cl)S(=O)(=O)c1ccc2ccccc2c1`, the “hERG current change (%, negative = inhibition) at 10uM” value was found to be 11.1%. In the case of `O=[N+]([O-])c1ccc(Oc2cc(NC3CCCCCCC3)c([N+](=O)[O-])cc2[N+](=O)[O-])cc1`, the “hERG current change (%, negative = inhibition) at 10uM” value was -8.64%.

For `O=[N+]([O-])C(=C1Nc2ccccc2N1)C(Cl)=C(Cl)Cl`, the “hERG current change (%, negative = inhibition) at 10uM” value came out at 23.1%. Consider `Cc1cccc(OCc2nnc(SCC(=O)c3cccs3)n2C)c1C`, for which the “hERG current change (%, negative = inhibition) at 10uM” value was -18.7%. Regarding `O=C(Nc1cccnc1)c1cc(-c2cccc(Br)c2)nc2ccccc12`, the “hERG current change (%, negative = inhibition) at 10uM” value was found to be 0.689%. For the compound `Cc1[nH]c(=O)[nH]c(=O)c1NS(=O)(=O)c1ccccc1`, the “hERG current change (%, negative = inhibition) at 10uM” value was 17.2%.

For `O=C(NCc1ccco1)c1ccc2ccccc2c1`, the “hERG current change (%, negative = inhibition) at 10uM” value was -9.83%.

On to `COc1ccc(/C(N)=N/OC(=O)CCc2ccccc2)cc1OC`, for which the “hERG current change (%, negative = inhibition) at 10uM” value is on record as -10.4%. For `O=C(CN1C(=O)/C(=C\c2ccco2)SC1=S)Nc1ccc(O)cc1C(=O)O`, the “hERG current change (%, negative = inhibition) at 10uM” value turned out to be 5.54%. Regarding `CCOc1ccc2nc(NC(=O)c3ccco3)sc2c1`, the “hERG current change (%, negative = inhibition) at 10uM” value is -2.08%. In the case of `CC(CCCN(C)C)C(Cc1ccccc1)c1ccccc1.Cl` (stereo not drawn), the “hERG current change (%, negative = inhibition) at 10uM” value was -7.53%.

As for `CCOc1ccc(CCNC(=O)C2CCN(S(=O)(=O)N3CCOCC3)CC2)cc1OCC`, the “hERG current change (%, negative = inhibition) at 10uM” value is -5.08%. The value for `CN(Cc1ccccc1)c1ccc(C(CC(N)=O)NC(=O)c2ccccc2)cc1[N+](=O)[O-]` (stereo not drawn) was 7.9%; that for `CN1CCN(c2nc(Nc3ccc(F)cc3)nc(Nc3ccc(F)cc3)n2)CC1` was -60.5%; that for `Cc1[nH]c2ccccc2c1C(=O)COC(=O)c1c(-c2ccccc2)noc1C` was -9.73%. In the case of `COc1ccc(S(=O)(=O)N2CCC(C(=O)NCCC(=O)NC3CC3)CC2)cc1`, the “hERG current change (%, negative = inhibition) at 10uM” value was 14.8%. As to `CC(=O)c1c(C)[nH]c(C(=O)CN2C(=O)NC(C)(C)C2=O)c1C`, the “hERG current change (%, negative = inhibition) at 10uM” value was -17.4%. Consider `CCc1noc(C)c1C(=O)Nc1nc(-c2ccccc2)cs1`, for which the “hERG current change (%, negative = inhibition) at 10uM” value was -32.6%. Take `CCOC(=O)Cn1c(O)c(N=NC(=O)OC)c2ccccc21`: the “hERG current change (%, negative = inhibition) at 10uM” value is -0.42%. In the case of `CCCCCn1c(=O)c(C(=O)NC(C)c2ccccc2)c(O)c2ccccc21` (stereo not drawn), the “hERG current change (%, negative = inhibition) at 10uM” value worked out at 11.7%. As to `O=C(O)/C=C/c1ccc(O)cc1`, the “hERG current change (%, negative = inhibition) at 10uM” value was -0.655%. For `Cc1ccc2nc3n(c(=O)c2c1)CCC3`, the “hERG current change (%, negative = inhibition) at 10uM” value is recorded as -14.5%. Consider `CSc1ccc(CCNC(=O)c2ccc(CS(=O)Cc3ccccc3Cl)o2)cc1` (stereo not drawn), for which the “hERG current change (%, negative = inhibition) at 10uM” value is listed as -2.87%. For the compound `CCOc1ccccc1OCCCC(=O)OCC(=O)Nc1cccc(Cl)c1`, the “hERG current change (%, negative = inhibition) at 10uM” value is -1.46%.

Regarding `CCOC(=O)Nc1ccc2nc(Sc3ccc(Cl)cc3)sc2c1`, the “hERG current change (%, negative = inhibition) at 10uM” value is given as 16.9%. With `O=C(NCC1CCN(Cc2ccccc2F)CC1)C1CCCN(c2ncnc3c2nc2n3CCCCC2)C1` (stereo not drawn), the “hERG current change (%, negative = inhibition) at 10uM” value was -8.94%. Regarding `O=C(NC(NC(=S)Nc1ccccc1O)C(Cl)(Cl)Cl)c1ccco1` (stereo not drawn), the “hERG current change (%, negative = inhibition) at 10uM” value was -1.45%.

For `COc1cc(C(=S)N2CCCCC2)ccc1OCC(=O)N1CCCC1`, the “hERG current change (%, negative = inhibition) at 10uM” value was -22.2%.

Consider `Cc1[nH]c2ccc(C(=O)OCCN(C)C)cc2c1C`, for which the “hERG current change (%, negative = inhibition) at 10uM” value worked out at 3.65%. As to `COCC(O)CSc1nc(C)[nH]c1[N+](=O)[O-]` (stereo not drawn), the “hERG current change (%, negative = inhibition) at 10uM” value is given as -3.58%. Turning to `COCc1c(N)c(C)nc(Cl)c1C#N.Cl`, the “hERG current change (%, negative = inhibition) at 10uM” value is listed as 22.3%. The value for `Cn1cc(/C=C/c2nc3ccccc3c(=O)n2-c2cccc([N+](=O)[O-])c2)c2ccccc21` was -3.56%.
